Measured values published in paper PMC4336329 (PLoS ONE, 2015).
Screen size: about 310,000 compounds; about 14,000 (4.5%) showed an effect of 50% or more. Effects have a minus sign here. This is one part of the list.

Target: human ether-à-go-go-related gene (hERG) potassium channel (human, UniProt Q12809)
Assay: primary screen, population patch clamp on CHO cells stably expressing hERG
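Also: peak tail current of the secondary pulse compared with the same well before compound.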

Chain of human ether-à-go-go-related gene (hERG) potassium channel (Q12809 whole entry, looked up): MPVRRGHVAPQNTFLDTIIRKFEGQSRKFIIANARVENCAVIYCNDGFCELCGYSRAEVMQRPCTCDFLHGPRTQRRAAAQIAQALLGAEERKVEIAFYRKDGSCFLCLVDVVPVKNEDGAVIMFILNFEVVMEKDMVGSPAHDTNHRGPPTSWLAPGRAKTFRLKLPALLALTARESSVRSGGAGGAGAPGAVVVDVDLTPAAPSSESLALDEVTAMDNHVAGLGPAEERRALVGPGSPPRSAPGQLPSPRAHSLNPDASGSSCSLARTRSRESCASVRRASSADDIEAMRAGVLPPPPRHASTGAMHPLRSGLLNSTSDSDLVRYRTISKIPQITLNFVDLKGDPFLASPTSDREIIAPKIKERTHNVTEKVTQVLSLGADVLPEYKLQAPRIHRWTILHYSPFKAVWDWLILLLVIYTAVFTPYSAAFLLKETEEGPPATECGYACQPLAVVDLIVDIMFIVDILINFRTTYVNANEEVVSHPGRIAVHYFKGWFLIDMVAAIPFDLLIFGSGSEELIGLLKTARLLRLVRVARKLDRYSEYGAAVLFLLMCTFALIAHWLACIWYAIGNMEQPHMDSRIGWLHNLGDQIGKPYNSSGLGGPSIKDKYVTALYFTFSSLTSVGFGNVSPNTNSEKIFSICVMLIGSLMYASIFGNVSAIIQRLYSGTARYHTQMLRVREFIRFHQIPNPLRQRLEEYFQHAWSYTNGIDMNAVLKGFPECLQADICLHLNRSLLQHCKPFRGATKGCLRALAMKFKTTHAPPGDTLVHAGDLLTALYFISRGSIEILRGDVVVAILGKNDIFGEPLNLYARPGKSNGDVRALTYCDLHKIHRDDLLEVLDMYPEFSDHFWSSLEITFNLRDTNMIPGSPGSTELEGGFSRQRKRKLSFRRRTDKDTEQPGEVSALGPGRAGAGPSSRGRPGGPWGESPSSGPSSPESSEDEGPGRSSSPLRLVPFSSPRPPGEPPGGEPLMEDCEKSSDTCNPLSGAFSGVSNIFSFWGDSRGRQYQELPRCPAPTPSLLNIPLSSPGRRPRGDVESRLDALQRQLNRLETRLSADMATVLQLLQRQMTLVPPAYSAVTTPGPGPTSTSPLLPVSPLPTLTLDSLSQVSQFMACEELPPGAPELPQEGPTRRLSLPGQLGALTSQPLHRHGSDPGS

| Compound | hERG current change (%, negative = inhibition) at 10uM |
| --- | --- |
| CCc1nnc(NC(=O)c2ccc3ncsc3c2)s1 | 17.4% |
| CN1CCN(C(=O)/C(=C/c2ccccc2F)NC(=O)c2ccccc2)CC1 | -29.2% |
| COCCNC(=O)Cn1cc(/C=C(\C#N)C(=O)NC2CC2)c2ccccc21 | 10.6% |
| O=C1CCN(CCc2ccccc2)CCN1CCOc1ccccc1 | -72.8% |
| O=C(N/N=C/c1ccccc1OCc1ccccc1Cl)c1cccnc1 | -16.5% |
| CCS(=O)(=O)NCCc1csc(-c2cccnc2)n1 | 25.5% |
| Nc1ccc(C(=O)c2cccs2)cc1 | 2.8% |
| Cc1cc(=O)[nH]c(SC(C(=O)O)c2ccccc2)n1 (centres unmarked) | -2.87% |
| COc1ccc2c(c1)CC[C@@H]1[C@@H]2CC[C@]2(C)[C@@H](C(=O)O)C[C@@H]12 | 6.23% |
| Cc1ccccc1CN1CCN(CC(=O)NCc2ccc3c(c2)OCO3)C1=O | -7.29% |
| Cc1cc(C(=O)Cn2nc(C(=O)O)c3ccccc3c2=O)c(C)n1-c1ccccc1 | 4.33% |
| CCOC(=O)Cc1csc(NC(=O)CCCC(=O)O)n1 | 20.2% |
| C=CCN1C(=O)C(C)(C)N(C(C)=O)c2ccccc21 | -15% |
| Cl.c1ccc(C2CSc3ccccc3N2)cc1 (centres unmarked) | 15.5% |
| CCOc1ccccc1N1CCN(C(=O)CC(C)(C)C)CC1 | 0.665% |
| CCCSc1nc2sc3c(c2c(=O)[nH]1)CC(C)(CC)OC3 (centres unmarked) | 27.7% |
| COc1ccc(NC(=O)N/C=C/c2ccc(Cl)cc2)cc1 | 7.59% |
| COC(=O)CCC(=O)OC1(C)C(=O)C=C2C=C(C3CC3)N(CCCOC(C)C)C=C2C1=O (centres unmarked) | 7.84% |
| CC1CCCN(CCCNC(=O)c2ccc(N3CCCC3=O)cc2)C1 (centres unmarked) | 14.1% |

| Compound | hERG current change (%, negative = inhibition) at 10uM |
| --- | --- |
| CCOc1ccccc1N1CCN(CC(=O)Nc2nc(C)c(C(=O)N(C)C)s2)CC1 | -3.21% |
| O=C1Nc2ccccc2C1=Nc1ccc(F)cc1 | 9.92% |
| CCOC(=O)N1CCN(C(=O)c2ccc3nc4ccc(Cl)cc4c(=O)n3c2)CC1 | -45.9% |
| NC(=O)CC(NC(=O)Cc1ccc(Br)cc1)c1ccc(NC2CCN(Cc3ccccc3)CC2)c([N+](=O)[O-])c1 (centres unmarked) | -45.8% |
| CCN(c1ccccc1)S(=O)(=O)c1ccc(Cl)nc1 | -2.63% |
| Nc1ccc2nc(CCCCCCCCc3nc4ccc(N)cc4[nH]3)[nH]c2c1 | 10.8% |
| COc1cc(C(=O)N/N=C/c2sc(N3CCOCC3)nc2-c2ccccc2)cc(OC)c1OC | 3.33% |
| COc1ccc(N(C)S(=O)(=O)c2cccc(C(=O)Nc3ccc(OC)nc3)c2)cc1 | -4.1% |
| CCN(CC)S(=O)(=O)c1ccc(NC2c3ccccc3C(=O)N2c2ccc(C)cn2)cc1 (centres unmarked) | 15% |
| CCOC(=O)CN1C(=O)S/C(=C/c2cc(C)n(-c3ccccn3)c2C)C1=O | -8.1% |
| O=C(NCc1ccccc1Cl)C1CCC(CNc2c(N3CCCCC3)c(=O)c2=O)CC1 (centres unmarked) | 14.6% |
| CN1CCN(c2nc3c(c(=O)n(C)c(=O)n3C)n2CCSc2nnnn2-c2ccccc2)CC1 | 0.637% |
| COc1ccc(OC)c(Nc2nc(NCCO)c3ccccc3n2)c1.Cl | -44.4% |
| CCN=C1SC(CC(=O)Nc2ccccc2OCC)C(=O)N1CC (centres unmarked) | -8.98% |
| COc1ccc2[nH]c(=O)c(CN(C(=O)c3cccnc3)c3cc(C)ccc3C)cc2c1 | -0.807% |
| Cc1ccc2c(N)c(C(=O)N(c3ccccc3)c3ccccc3)sc2n1 | 33.7% |
| O=C(NNC(=O)c1ccccc1-n1cccc1)c1ccc(F)cc1 | 18.2% |
| O=C1CCC/C(=N\NC(=O)NC2CCCCC2)C1 | -13.4% |
| O=C(c1c[nH]c2ccccc12)N1CCOCC1 | 8.48% |

| Compound | hERG current change (%, negative = inhibition) at 10uM |
| --- | --- |
| CCc1cc2cc(C)ccc2nc1SCC(=O)NNC(=O)c1ccco1 | 21.9% |
| COc1ccccc1NC(=O)COC(=O)/C=C/c1ccccc1[N+](=O)[O-] | 4.7% |
| Cc1c(NC(=O)c2cc(-c3ccco3)on2)c(=O)n(-c2ccccc2)n1C | 14.5% |
| CC1CCc2c(sc(NC(=O)C3c4ccccc4Oc4ccccc43)c2C(N)=O)C1 (centres unmarked) | 2.73% |
| CC(=O)c1c(C)[nH]c(-c2ccccc2)c1C | 1.07% |
| CC(OC(=O)CC1CCCCC1)C(=O)Nc1ccc(S(N)(=O)=O)cc1 (centres unmarked) | -11.6% |
| O=C(CNC(=O)c1cnccn1)Nc1ccc(F)c(F)c1F | 20.8% |
| N#CC1(NC(=O)CSc2nnc(COc3ccccc3F)n2N)CCCCC1 | -0.0615% |
| Cc1ccc(CNC(=O)COC(=O)[C@@H]2CC(O)CN2S(=O)(=O)c2ccc3c(c2)OCCO3)cc1 (some centres unmarked) | -16.8% |
| CCCCn1c(N)c(N(CC)C(=O)CSCC(=O)Nc2ccc(OC)cc2)c(=O)[nH]c1=O | 21.6% |
| C[C@H](NC(=O)c1cc2c([nH]c3ccccc32)c(-c2ccccc2)n1)C(=O)O | 11.8% |
| O=C(CNc1ccccc1Cl)c1ccc(Br)cc1 | -5.38% |
| O=C(c1ccc2c(c1)OCCO2)C1CCN(S(=O)(=O)c2ccc(F)cc2)CC1 | -29.5% |
| CN(C(=O)c1cncc(Br)c1)c1c(N)n(Cc2ccccc2)c(=O)[nH]c1=O | 5.77% |
| CN1CC(C(=O)O)Cc2c1ccc1ccccc21 (centres unmarked) | 13.9% |
| Cn1c(C(=O)OC(C(=O)NC2CCCCC2)c2ccncc2)cc2sccc21 (centres unmarked) | -0.943% |
| CCC(=O)NC(NC(=S)Nc1c(C)n(C)n(-c2ccccc2)c1=O)C(Cl)(Cl)Cl (centres unmarked) | 6.42% |
| COc1cccc(N2CCN(C(=O)C3CCCN(c4ncnc5c4nc4n5CCCCC4)C3)CC2)c1 (centres unmarked) | -81.7% |
